According to paper PMC4336329 (PLoS ONE, 2015):
About 14,000 (4.5%) of roughly 310,000 compounds showed an effect of 50% or more. The effect is printed as a negative number. This is one part of the list.

Biological target: human ether-à-go-go-related gene (hERG) potassium channel (human, UniProt Q12809)
Test: primary screen, population patch clamp on CHO cells stably expressing hERG
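Also: peak tail current of the secondary pulse compared with the same well before compound.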

Sequence of human ether-à-go-go-related gene (hERG) potassium channel (Q12809 whole entry, looked up): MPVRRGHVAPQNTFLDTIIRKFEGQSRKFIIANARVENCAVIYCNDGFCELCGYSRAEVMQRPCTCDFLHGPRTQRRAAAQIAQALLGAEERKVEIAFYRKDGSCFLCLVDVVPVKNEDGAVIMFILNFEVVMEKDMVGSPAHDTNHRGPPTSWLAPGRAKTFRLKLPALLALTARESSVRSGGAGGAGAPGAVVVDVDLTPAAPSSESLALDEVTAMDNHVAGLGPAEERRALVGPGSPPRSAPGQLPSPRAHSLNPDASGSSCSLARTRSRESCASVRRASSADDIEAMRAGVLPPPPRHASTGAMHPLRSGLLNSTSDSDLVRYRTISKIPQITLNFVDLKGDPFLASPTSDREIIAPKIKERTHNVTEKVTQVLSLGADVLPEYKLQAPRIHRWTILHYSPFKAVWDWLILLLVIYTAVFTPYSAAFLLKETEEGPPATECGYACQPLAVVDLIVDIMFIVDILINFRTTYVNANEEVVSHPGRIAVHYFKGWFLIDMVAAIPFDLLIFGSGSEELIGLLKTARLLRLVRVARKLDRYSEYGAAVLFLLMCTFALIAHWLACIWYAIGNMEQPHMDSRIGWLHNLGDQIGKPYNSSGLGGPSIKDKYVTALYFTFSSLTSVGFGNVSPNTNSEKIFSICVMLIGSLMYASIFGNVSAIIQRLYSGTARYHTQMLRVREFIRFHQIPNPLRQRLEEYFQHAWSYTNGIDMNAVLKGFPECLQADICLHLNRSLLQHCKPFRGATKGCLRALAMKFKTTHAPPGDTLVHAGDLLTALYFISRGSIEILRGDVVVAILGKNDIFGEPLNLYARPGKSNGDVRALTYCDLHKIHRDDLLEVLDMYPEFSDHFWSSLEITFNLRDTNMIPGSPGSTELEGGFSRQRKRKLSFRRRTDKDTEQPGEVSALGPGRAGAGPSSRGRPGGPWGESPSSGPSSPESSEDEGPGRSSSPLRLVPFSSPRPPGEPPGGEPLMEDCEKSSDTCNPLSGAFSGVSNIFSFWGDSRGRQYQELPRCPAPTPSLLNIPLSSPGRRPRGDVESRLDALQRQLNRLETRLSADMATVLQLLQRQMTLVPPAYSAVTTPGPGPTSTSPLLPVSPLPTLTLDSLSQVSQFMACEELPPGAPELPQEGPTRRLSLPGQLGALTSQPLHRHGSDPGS

Row | Compound | hERG current change (%, negative = inhibition) at 10uM
1 | O=C(N/N=C/c1ccccc1O)C1SCCCS1 | 3.55%
2 | CN(CC(=O)Nc1ccccc1Cl)C(=O)c1cccc(S(=O)(=O)N2CCN(c3ccc(F)cc3)CC2)c1 | -13.4%
3 | COc1cc(S(=O)(=O)N2CCOCC2)ccc1N | 18.8%
4 | CCc1noc(C)c1C(=O)Nc1nc2ccc(S(C)(=O)=O)cc2s1 | -5.83%
5 | Cc1c(Cl)cccc1-n1c(SCC(=O)N2CCC(C(=O)O)CC2)nnc1-c1ccncc1 | 41%
6 | c1ccc2cc(CSCc3nc4ccccc4[nH]3)ccc2c1 | -0.252%
7 | Cc1ccc(C(=O)NC(=S)Nc2c(C)ccc3nsnc23)cc1 | 0.39%
8 | Cc1nn(-c2ccccc2)c(Cl)c1/C=N/NS(=O)(=O)c1ccc(Br)cc1 | 7.93%
9 | COc1ccc(CC(=O)NC2CCN(CC(=O)Nc3ccc4c(c3)OCCO4)CC2)cc1OC | -1.63%
10 | CC(C)OC(=O)CC1C(=O)NCCN1C(=S)NC(=O)CCc1ccccc1 (stereo not drawn) | -6.97%
11 | FC(F)(F)c1ccc(C2[C@H]3CN(Cc4ccc(-c5ccccc5)cc4)[C@H](c4ccccc4)C34CC2(c2ccccc2)C4)cc1 (stereo partly drawn) | 17.3%
12 | CN1CCN(CC(=O)N2c3ccccc3C(C)(c3ccc(Cl)cc3)CC2(C)C)CC1 (stereo not drawn) | -21.1%
13 | COc1ccc(N2CCN(C(=O)CSc3nc4nc(C)cc(C)n4n3)CC2)cc1 | -27.8%
14 | O=C(CCSc1nc(-c2ccco2)cc(C(F)(F)F)n1)N1CCN(c2ccccc2)CC1 | -0.756%
15 | O=C(C1CCC(=O)N1C1CCCC1)N1CCC2(CC1)OCCO2 (stereo not drawn) | 11.3%
16 | C=CCn1c(SCC(=O)c2c(N)n(C3CC3)c(=O)[nH]c2=O)nnc1-c1ccoc1C | -0.51%
17 | Cc1nnc2n1N=CC=C(c1ccccc1)S2 | -26.8%
18 | COc1ccc(-c2noc(CCC(=O)NCCc3cccc(C)c3)n2)cc1 | -0.562%
19 | O=C(c1ccccc1)N1CC[NH+](CC(O)COC2CCCCC2)CC1.[Cl-] (stereo not drawn) | -42.5%
20 | C=CCn1c(SCC(=O)/C(C#N)=C(\C)N)nc2sc(C)c(C)c2c1=O | -7.73%
21 | Clc1ccc(/C=N/Nc2nnc(-c3ncc[nH]3)c3ccccc23)cc1 | -9.21%

Row | Compound | hERG current change (%, negative = inhibition) at 10uM
22 | O=C(CN1CCN(C(=O)CNC(=O)c2ccc3c(c2)OCO3)CC1)Nc1ccc(F)cc1 | -39.5%
23 | COC(=O)c1ccccc1-n1c(C)nc2ccccc2c1=O | -3.37%
24 | CCCCN(CC)C(=O)Cc1cn(C)c2ccccc12 | -7.34%
25 | CCCCn1c(N)c(N(CC(C)C)C(=O)CC2CCCC2)c(=O)[nH]c1=O | 6.4%
26 | CCOc1ccc(/C=C/C(=O)Nc2cccc(C(C)=O)c2)cc1 | 8.25%
27 | CC(C)CC(=O)Nc1ccnc(-c2ccncc2)n1 | -26.6%
28 | CCN(C(=O)COC(=O)Cc1c[nH]c2ccccc12)c1c(N)n(Cc2ccccc2)c(=O)[nH]c1=O | 16.3%
29 | O=C(NC1CC1)C1CCCN(C(=O)NC2CCCCC2)C1 (stereo not drawn) | -0.046%
30 | Cc1ccc(CCC2C3=C(CCCC3=O)OC3=C2C(=O)CCC3)cc1 | -2.32%
31 | CCN(CC)S(=O)(=O)c1cc(C(=O)N=c2sccn2C)ccc1OC | 8.14%
32 | COc1ccc(C(=O)OC(C)C(=O)NC2CCCCC2C)cc1S(=O)(=O)N1CCOCC1 (stereo not drawn) | -7.8%
33 | COc1cc(O)c(CCO)c2c1C(=O)C[C@@H](C)O2 | -12.4%
34 | Fc1ccc(CNC(=S)NC2CCCCCC2)cc1 | 14%
35 | O=C1NCCN(Cc2ccc(Cl)c(F)c2)C1CC(=O)N1CCc2ccccc2C1 (stereo not drawn) | -11.6%
36 | CCn1nnc(NC(=O)c2ccc(-c3ccccc3[N+](=O)[O-])o2)n1 | 1.59%
37 | Cc1csc2ncc(C(=O)NCc3ccco3)c(=O)n12 | -9.02%
38 | CC(C)c1nnc(NC(=O)CCC(=O)NCC2CCCO2)s1 (stereo not drawn) | -7.37%
39 | CC(=O)c1cccc(Oc2cc(NN3CCCCC3)c([N+](=O)[O-])cc2[N+](=O)[O-])c1 | -12.8%
40 | CC(=O)NC1C(=O)N(CCc2ccccc2)c2ccccc21 (stereo not drawn) | 6.92%
41 | O=C(COc1ccc([N+](=O)[O-])cc1)Nc1cc(S(=O)(=O)N2CCCCC2)ccc1N1CCCCC1 | 1.79%
42 | CCOC(=O)c1nc(-c2ccc(OC)c(OC)c2)no1 | 1.97%
